# Source: PubChem BioAssay AID1466 (National Center for Advancing Translational Sciences (NCATS), 2008)
# In all, about 200,000 compounds went through this assay and about 10 (0.005%) were called active. Inconclusive means that the source gave no clear call. Such entries were picked first, then a sample of the others. Calls come from the whole dose curve; as a rule, active = well fitted inhibition curve with a large enough effect; inconclusive = small, poorly fitted or top-dose-only effect, or effect the other way, or another doubt; inactive = no such curve, though single readings can be large or run the other way. Potencies of inconclusive entries are left out as doubtful fits.
# Biological target: Lysosomal alpha-glucosidase (Homo sapiens) (UniProt P10253)
# Assay: qHTS Assay for Inhibitors of Human alpha-Glucosidase as a Potential Chaperone Treatment of Pompe Disease;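 for activity change, negative = inhibition: plate controls were uninhibited enzyme wells for no effect and no-enzyme background for full effect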
# Details: purified human GAA, 4-MU-alpha-glucoside fluorescence; activity change, negative = inhibition: at 76.9 µM (top of the series) unless noted
# Method in brief: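 qHTS format, compound range up to 77 uM. Human lysosomal enzyme at 4 nM, 400 uM 4-MU glucoside substrate, pH 5.0, 20 min room temperature; fluorescence after alkaline stop gives activity normalized to controls.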
# Potency is the fitted concentration of half-maximal effect; tags give direction and shape of the fitted curve.
SMILES,Potency,"activity change, negative = inhibition"
Cc1ccc(C)c2[nH]c(=O)c(CCNC(=O)c3cc4ccccc4o3)cc12,"inconclusive [inhibitor, single point]",
COc1ccc(NC(=O)c2cc3c(s2)CCC(C)C3)cc1S(=O)(=O)N1CCOCC1 (stereo not drawn),"inconclusive [inhibitor, full curve, poor fit]",
COC(=O)CN(c1ccc(C)cc1)S(=O)(=O)c1c(C)[nH]c(=O)[nH]c1=O,,inconclusive: -16.1% [inhibitor]
Cc1nn(CCC#N)c(NC(=O)c2ccc(Cl)cc2)c1P(=O)(Nc1ccc([N+](=O)[O-])cc1)N1CCOCC1 (stereo not drawn),"inconclusive [inhibitor, single point]",
[O-]/C(=C(\C(=S)Nc1cccc2ccccc12)[n+]1cccc(CO)c1)c1ccc(Cl)s1,,inconclusive: -18.5% [inhibitor]
Cc1ccc(Sc2c(C)nn(C(=O)c3cccc(S(=O)(=O)N4CCOCC4)c3)c2C)cc1,"inconclusive [inhibitor, single point]",
CCN1CCN(CCNC(=O)CCCCCn2c(=O)[nH]c3cc(C(=O)OC)ccc3c2=O)CC1,,inconclusive: 53.4% [activator]
O=S(=O)(NC(=S)NC1CCCCC1)c1ccc(Cl)cc1,"inconclusive [inhibitor, single point]",
CCC(=O)Nc1cccc(-c2cn3ccsc3n2)c1,"inconclusive [inhibitor, single point]",
O=C(N/N=C/c1ccc(O)cc1)/C(=C/c1ccc([N+](=O)[O-])cc1)NC(=O)c1ccccc1,"inconclusive [inhibitor, single point]",
O=C(CC1(O)C(=O)N(C/C=C/c2ccccc2)c2ccccc21)c1ccccn1 (stereo not drawn),"inconclusive [inhibitor, partial curve, poor fit]",
CCNC(=S)NNC(=O)c1ccc(OC)cc1,,inconclusive: 15.3% [activator]
CC1Oc2ccccc2N(CC(=O)N(Cc2ccccc2)Cc2ccccn2)C1=O (stereo not drawn),"inconclusive [inhibitor, single point]",
O=C(Cc1ccc(-n2c(=S)[nH]c3ccccc3c2=O)cc1)N1CCN(c2ccccc2)CC1,"inconclusive [inhibitor, full curve, poor fit]",
Cc1onc(-c2ccccc2)c1C(=O)OCC(=O)c1ccccc1,,inconclusive: -20.5% [inhibitor]
CC(C)(C)c1ccc(C(=O)C2CCCN(C(=O)C3CCOCC3)C2)cc1 (stereo not drawn),,inconclusive: 18.6% [activator]
Cc1ccc(Nc2nnc(SCC(=O)Nc3ccc(S(=O)(=O)N4CCOCC4)cc3)s2)cc1,"inconclusive [inhibitor, partial curve]",
C=C(C)Cn1c(SCC(=O)N/N=C/c2c(O)ccc3ccccc23)nc2ccccc2c1=O,,inconclusive: -16% [inhibitor]
CCN1CC(CN(C)Cc2cn(-c3cccc(C)c3)nc2-c2cccc(F)c2)CC1=O (stereo not drawn),"inconclusive [inhibitor, partial curve]",
Cc1ccc(CN2CCN(Cc3ccccc3)C(CCO)C2)s1 (stereo not drawn),"inconclusive [inhibitor, full curve, poor fit]",
CC(=O)N1CCC(=O)N(C(C)C)c2ccccc21,inactive,

SMILES,Potency,"activity change, negative = inhibition"
CCCC1=NN2C(=N)/C(=C\c3cc(C)n(-c4cc(C)cc(C)c4)c3C)C(=O)N=C2S1,"inconclusive [inhibitor, single point]",
Cc1ccc2c(c1)C(O)(c1c(C)[nH]c3ccccc13)C(=O)N2 (stereo not drawn),"inconclusive [inhibitor, single point]",
CN(c1ccc(OCc2nnc(-c3ccccc3)o2)cc1)S(=O)(=O)c1ccccc1,"inconclusive [inhibitor, partial curve, poor fit]",
COC(=O)c1ccc(NC(=O)C2CCCN2S(=O)(=O)c2ccc(OC)cc2)cc1 (stereo not drawn),"inconclusive [inhibitor, single point]",
C=CCNc1oc(-c2cccc3ccccc23)nc1C#N,"inconclusive [activator, partial curve]",
Cn1c(=O)[nH]c(=O)c2c1nc(CN1CCN(c3ccccc3F)CC1)n2CCCc1ccccc1,"inconclusive [inhibitor, full curve]",
COc1cccc(CNc2ccc(Br)cn2)c1O,inactive,
COc1ccc(-c2cc(C(=O)N3CCc4ccccc4C3)no2)cc1OC,"inconclusive [inhibitor, partial curve]",
c1ccc(-c2nc3nc4ccccc4nc3n2Cc2ccco2)cc1,"inconclusive [activator, partial curve]",
CCC(C)n1c(-c2cccs2)nc2nc3ccccc3nc21 (stereo not drawn),"inconclusive [activator, partial curve]",
CN1CCN(C(=O)/C(=C/c2cccs2)NC(=O)c2ccco2)CC1,,inconclusive: 13.8% [activator]
COc1ccc(C2NC(=S)NC3=C2CCc2cc(OC)ccc23)cc1 (stereo not drawn),"inconclusive [inhibitor, full curve]",
O=C(OCn1nnc2ccccc2c1=O)c1ccc2ncsc2c1,"inconclusive [inhibitor, single point]",
CC1CN(C(=O)C2CCCC2)C(C)CN1C(=O)C1CCCC1 (stereo not drawn),"inconclusive [inhibitor, single point]",
Cc1ccc(S(=O)(=O)N2CCN(C(=O)CCN3C(=O)c4ccccc4C3=O)CC2)cc1C,"inconclusive [inhibitor, single point]",
Cc1cccc2nc(-c3cccnc3)c(NCCC(C)C)n12,,inconclusive: 15.3% [activator]
CC(=O)N(/N=C/c1cccc(C)c1)c1nc(-c2ccc(Br)cc2)cs1,,inconclusive: 15.4% [activator]
CCC1(CC)Nc2ccccc2C(=O)N1c1ccc(NC(C)=O)cc1,"inconclusive [activator, single point]",
Cc1ccc(S(=O)(=O)N2CCC(=O)N(CCOCc3ccccc3)CC2)cc1,"inconclusive [inhibitor, single point]",
Nc1c(C(=O)NCCN2CCOCC2)c2nc3ccccc3nc2n1CCc1ccccc1,,inconclusive: 38.6% [activator]
O=S(=O)(c1ccc(Cl)cc1)N1CCN=C1SCc1cccc(Cl)c1,"inconclusive [inhibitor, full curve, poor fit]",

SMILES,Potency,"activity change, negative = inhibition"
O=C(CSc1ccc(-c2ccc(F)cc2)nn1)N1CCCCC1,"inconclusive [inhibitor, partial curve]",
Cc1nc(-c2ccccc2)cn2c1nc1ccccc12,"inconclusive [activator, partial curve]",
O=C(Cn1c2ccccc2c(=O)c2ccccc21)Nc1cccc(F)c1,,inconclusive: 37% [activator]
CC1=C(C)CC(C(=O)NNC(=O)c2cccc(Cl)c2)C(C(=O)O)C1 (stereo not drawn),"inconclusive [inhibitor, single point]",
CCC(=O)n1nc(-c2cccnc2)nc1NCc1ccc(OC)cc1,,inconclusive: -16.3% [inhibitor]
COc1ccc(CC(=O)OC(C)CN2CCCCC2)cc1 (stereo not drawn),,inconclusive: 17% [activator]
COCCn1c(=O)[nH]c2cc(C(=O)NCCc3ccc(S(N)(=O)=O)cc3)ccc2c1=O,,inconclusive: 55.1% [activator]
Cc1c(OC(=O)CNC(=O)OC(C)(C)C)ccc2c3c(c(=O)oc12)CCC3,"inconclusive [activator, partial curve]",
CCCCN(C)C(=O)CCC(=O)Nc1ccc2nc(N3CCN(C)CC3)cc(C)c2c1,"inconclusive [activator, partial curve]",
CC1CCN(C(=S)c2cccc(O)c2)CC1,,inconclusive: 13.7% [activator]
CCOC(=O)c1c(-c2ccco2)csc1NC(=O)CSc1nnc(N)s1,inactive,
CCOC(=O)C1(S(=O)(=O)c2ccccc2)CCN(Cc2ccc(Cl)cc2)CC1,"inconclusive [inhibitor, single point]",
Cc1ccc(O)c(NC(=O)c2cccc(S(=O)(=O)N3CCCCC3)c2)c1,"inconclusive [inhibitor, single point]",
CS(=O)(=O)c1ccc2nc(NC(NC(=O)c3ccco3)(C(F)(F)F)C(F)(F)F)sc2c1,"inconclusive [inhibitor, single point]",
COc1ccc(-c2nnn(CC(=O)NCCc3ccc(OC)c(OC)c3)n2)cc1,,inconclusive: 5.28% [activator]
COc1ccc(OCC(=O)OCC(=O)Nc2ccc(S(=O)(=O)N3CCCCC3)cc2)cc1,"inconclusive [inhibitor, single point]",
CCN(CC)CCCN(Cc1cc2cc3c(cc2[nH]c1=O)OCO3)C(=S)Nc1ccccc1,"inconclusive [inhibitor, single point]",
C/C(CC1(O)C(=O)Nc2ccccc21)=N\O (stereo not drawn),"inconclusive [inhibitor, partial curve]",
O=C(O)CCC(=O)N1CCc2cc(S(=O)(=O)N3CC=C(c4ccccc4)CC3)ccc21,"inconclusive [inhibitor, single point]",
CC1CC1c1ccc(/C=C(\C#N)C(=O)Nc2ccc(Cl)cc2)o1 (stereo not drawn),"inconclusive [inhibitor, full curve, poor fit]",
Cc1cc(C)nc(SCCC(=O)Nc2ccccc2Cl)n1,,inconclusive: 16.6% [activator]
